In PubChem BioAssay AID1476 (National Center for Advancing Translational Sciences (NCATS), 2009):
Out of some 200,000 compounds screened, about 4,500 (2.2%) were called active. The shares of active, inactive and inconclusive entries below differ from those in the screen. Calls follow the shape of the dose curve; as a rule, active = well fitted inhibition curve with a large enough effect; inconclusive = small, poorly fitted or top-dose-only effect, or effect the other way; inactive = flat fitted curve, though single readings scatter. Potencies beside an inconclusive call are fits to weak or partial responses and may not hold up.
Also: nearly all actives have a fitted effect of over 40% in size.
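For max response, negative = inhibition in this document: plate controls were enzyme without inhibitor for no effect and buffer without enzyme for full effect.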
Potency is read from the fitted curve at half-maximal effect; tags tell the direction and shape of the fitted curve.

What follows are compounds tested against Cruzipain (Trypanosoma cruzi) (UniProt P25779) (assay: qHTS Assay for Promiscuous and Specific Inhibitors of Cruzain (without detergent)). Details: purified cruzain, Z-FR-AMC fluorescence, no detergent.
Chain of UniProt P25779 (P25779 whole entry, looked up): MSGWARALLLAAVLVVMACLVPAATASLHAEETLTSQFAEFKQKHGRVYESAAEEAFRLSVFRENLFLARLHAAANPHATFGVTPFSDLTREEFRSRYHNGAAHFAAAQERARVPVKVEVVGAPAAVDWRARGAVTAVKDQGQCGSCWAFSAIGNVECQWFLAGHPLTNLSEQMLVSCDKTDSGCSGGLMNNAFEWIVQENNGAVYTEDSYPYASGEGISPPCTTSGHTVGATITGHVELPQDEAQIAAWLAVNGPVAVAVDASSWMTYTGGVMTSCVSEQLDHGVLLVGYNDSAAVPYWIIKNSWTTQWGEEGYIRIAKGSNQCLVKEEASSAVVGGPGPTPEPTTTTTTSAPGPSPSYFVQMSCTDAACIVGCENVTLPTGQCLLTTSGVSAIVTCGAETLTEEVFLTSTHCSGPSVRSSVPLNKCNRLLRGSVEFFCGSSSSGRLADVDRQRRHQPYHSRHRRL
In short: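 Purified cruzain at 1.5 nM, pre-incubated 15 min with compound at room temperature in 100 mM sodium acetate pH 5.5, 5 mM DTT, 0.00005% Triton X-100. Reaction started with 2 uM Z-FR-AMC; AMC fluorescence increase over 60 s gives rate.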
`Cc1ccccc1NC(=O)C1CCC(CNS(=O)(=O)c2ccc3c(c2)C(C)(C)C(=O)N3C)CC1` (centres undefined) was tested, and the Potency was inconclusive: 39.8 µM [activator, single point].
`C=C(C)C1CC=C(C)/C(=N/NC(=O)CNc2ccc(OCC)cc2)C1` (centres undefined) was tested, and the Potency was inconclusive: 15.8 µM [inhibitor, partial curve].
With `COc1ccc(S(=O)(=O)/N=C2/NC(=O)/C(=C\c3cc(OC)c(OC)cc3[N+](=O)[O-])S2)cc1` the Potency was inconclusive: 39.8 µM [activator, single point].
In the case of `CCOc1ccc(NC(=O)Cn2c(=O)oc3cc(S(=O)(=O)NC4CCCC4)ccc32)cc1`, the max response, negative = inhibition is reported as inactive: -14.6%.
For `N#CCCn1nc(-c2ccccc2)cc1-n1c(C(F)(F)F)nc2ccccc21`, the Potency was inconclusive: 39.8 µM [activator, single point].
With `O=C(CN1CCN(Cc2ccc(F)cc2Cl)S1(=O)=O)Nc1ccc(F)cc1` the max response, negative = inhibition was inactive: 7.25%.
With `COc1ccccc1NC(=O)CSc1nc2ccccc2c(=O)n1CCC(=O)NC1CCCCC1` the max response, negative = inhibition was inactive: -7.71%.
In the case of `CCOC(=O)c1c(S(=O)(=O)N2CCCC(C(=O)N(C)Cc3ccccc3)C2)c(C)n(C)c1C` (centres undefined), the max response, negative = inhibition is reported as inactive: 22.8%.
With `CC1=C(c2ccc(F)cc2)S(=O)(=O)N=C1N1CCC(C(=O)NCCc2ccco2)CC1` the max response, negative = inhibition was inactive: 23.4%.
In the case of `Cn1cnc(S(=O)(=O)N2CCC(C(=O)NCc3ccccc3)CC2)c1`, the max response, negative = inhibition is reported as inactive: -13.6%.
In the case of `Cc1ccc(C)c(NC(=O)c2cccc(Oc3ccc([N+](=O)[O-])cc3Cl)c2)c1`, the Potency is reported as inconclusive: 39.8 µM [inhibitor, single point].
`COc1cc(/C=C/C(=O)Nc2ccc(C)cc2)cc(OC)c1OC` was tested, and the Potency was inconclusive: 39.8 µM [activator, single point].
`O=C(Nc1nc(-c2ccncc2)cs1)c1ccco1` was tested, and the Potency was active: 15.8 µM.
With `O=P(CCCCCCCCCP(=O)(c1ccccc1)c1ccccc1)(c1ccccc1)c1ccccc1` the Potency was inconclusive: 25.1 µM [activator, single point].
With `CN(C)c1ccc(C2(c3ccc(N(C)C)cc3)OC(=O)c3cc(N(C)C)ccc32)cc1` the Potency was active: 25.1 µM.
For `Cc1ccccc1OCC(O)Cn1c(SC(C)C)nc2c1c(=O)[nH]c(=O)n2C` (centres undefined), the Potency was inconclusive: 20 µM [activator, single point].
With `Cc1ccc(S(=O)(=O)C(C#N)c2nc3ccccc3nc2N2CCCCC2)cc1` (centres undefined) the max response, negative = inhibition was inactive: -6.96%.
With `COc1cccc2c1cc1c(=O)n(CC(=O)N3CCN(c4ccccc4F)CC3)nc(C)n12` the max response, negative = inhibition was inactive: 4.69%.
With `O=C(CSCc1ccco1)Nc1cc(C(F)(F)F)ccc1N1CCOCC1` the Potency was inconclusive: 39.8 µM [activator, single point].
With `O=S(=O)(Nc1cccc2c1ccc1cccn12)c1cccs1` the Potency was inconclusive: 25.1 µM [inhibitor, single point].
`CCOC(=O)N1CCC(Nc2c(N3CCN(c4cccc(C(F)(F)F)c4)CC3)c(=O)c2=O)CC1` was tested, and the Potency was inconclusive: 31.6 µM [activator, single point].
In the case of `CCCOc1ccc(-c2nc(C#N)c(NCC3CCCO3)o2)cc1` (centres undefined), the Potency is reported as inconclusive: 20 µM [activator, single point].
For `O=[N+]([O-])c1cccc2ccc(/C=C/c3ccc(Cl)cc3)nc12`, the Potency was active: 10 µM.
With `O=Cc1c2[nH]c3ccccc3c2cc2[nH]c3ccccc3c12` the Potency was active: 25.1 µM.
`COc1ccc(/C=N/NC(=O)CN(CCc2ccccc2)S(=O)(=O)c2ccc(NC(C)=O)cc2)cc1OC` was tested, and the Potency was inconclusive: 39.8 µM [activator, single point].
For `CCC(=O)N1c2ccccc2CC1C(=O)NCCCN1CCN(c2cc(C)ccc2C)CC1` (centres undefined), the max response, negative = inhibition was inactive: 6.43%.
With `COc1ccc(-c2noc(CCCOc3ccccc3)n2)cc1OC` the Potency was inconclusive: 31.6 µM [activator, single point].
With `Cn1c2ccccc2c2cc(C(=O)NNS(=O)(=O)c3ccc(F)cc3)sc21` the Potency was inconclusive: 15.8 µM [inhibitor, partial curve, poor fit].
For `CCN(C(=O)c1ccc2c(c1)N(Cc1cccc(Cl)c1)C(=O)c1ccccc1S2=O)c1ccccc1` (centres undefined), the max response, negative = inhibition was inactive: -6.54%.
For `COc1ccc2nc(NC3=NC(c4ccccc4)CC(=O)N3)nc(C)c2c1` (centres undefined), the Potency was inconclusive: 39.8 µM [activator, single point].
`CCOc1ccccc1NC(=O)CN(c1ccc(C)cc1)S(=O)(=O)c1c(C)n[nH]c1C` was tested, and the Potency was inconclusive: 25.1 µM [activator, single point].
In the case of `O=C(Nc1ccccc1)C1=C(O)CC(c2ccc(Cl)cc2)N2CCN=C12` (centres undefined), the Potency is reported as inconclusive: 25.1 µM [inhibitor, single point].
With `C=CCOC(=O)/C(=C\C=C\c1ccccc1)NC(=O)c1ccccc1` the Potency was inconclusive: 15.8 µM [inhibitor, partial curve].
For `CCCCc1c(O)nc(SCC(=O)Nc2ccc3c(c2)CCC3)[nH]c1=O`, the Potency was active: 20 µM.
For `COC(=O)c1ccc(C(NC(=O)OCc2ccccc2)/C(=C/[C@@H](C)C(=O)N(C)Cc2ccccc2)c2cccnc2)cc1` (some centres undefined), the Potency was inconclusive: 39.8 µM [activator, single point].
With `CC(=O)OC1CCC2(C)C3CCC4(C)C(CC5CCCCC54C(C)=O)C3CC(=O)[C@@]2(O)C1` (some centres undefined) the max response, negative = inhibition was inactive: 5.65%.
With `CC(=O)N1CCOc2cc(S(=O)(=O)NCc3ccccc3Cl)c(C)cc21` the max response, negative = inhibition was inactive: 11.2%.
In the case of `CCCCN(C(=O)CSc1nncn1-c1ccccc1)c1c(N)n(Cc2ccccc2)c(=O)[nH]c1=O`, the Potency is reported as inconclusive: 25.1 µM [activator, partial curve].
For `O=C(Nc1nnc(C2CC2)s1)C1Cc2ccccc2CN1S(=O)(=O)c1cccs1` (centres undefined), the Potency was inconclusive: 25.1 µM [inhibitor, single point].
In the case of `O=C(Nc1c(C(=O)c2ccccc2)oc2ccccc12)c1cc(-c2ccccc2O)n[nH]1`, the Potency is reported as active: 12.6 µM.
`COc1cccc(/C=C/C(=O)c2ccc(NS(=O)(=O)c3ccc(C)cc3)cc2)c1` was tested, and the Potency was inconclusive: 20 µM [inhibitor, partial curve, poor fit].
In the case of `O=C(NCc1cccc(F)c1)C1CCN(c2nc3ccccc3nc2C(F)(F)F)CC1`, the max response, negative = inhibition is reported as inactive: -12.2%.
`CC(=O)N1CCc2c(sc3c2c(=O)n(-c2ccccc2)c(=O)n3CC(=O)c2ccc(Cl)cc2)C1` was tested, and the max response, negative = inhibition was inactive: 0.495%.
For `COc1cccc(-c2nc(NCCc3c[nH]c4ccc(OC)cc34)c3ccccc3n2)c1`, the Potency was inconclusive: 39.8 µM [inhibitor, single point].
With `CCC(=O)OCC(=O)[C@@]1(OC(=O)CC)[C@@H](C)C[C@@H]2[C@H]3CCC4=CC(=O)C=C[C@]4(C)[C@@]3(F)[C@@H](O)C[C@@]21C` the Potency was inconclusive: 39.8 µM [activator, single point].
With `CCN(CC)S(=O)(=O)c1cc(-c2nn(C)c(=O)c3ccccc23)ccc1C` the Potency was inconclusive: 39.8 µM [activator, single point].
In the case of `COC(=O)c1ccc(COC(=O)c2ccc(S(=O)(=O)N3CCC(C)CC3)cc2)o1`, the Potency is reported as inconclusive: 39.8 µM [activator, single point].
`CCOc1cccc(NC(=O)C2CC(=O)N(C)C(=Nc3cccc(OC)c3)S2)c1` (centres undefined) was tested, and the Potency was inconclusive: 39.8 µM [activator, single point].
For `COc1ccc(C(=O)N2CC3(CC(c4ccc(Cl)cc4)=NO3)C[C@H]2C(=O)NCC(N)=O)cc1` (some centres undefined), the Potency was inconclusive: 25.1 µM [activator, single point].
For `Cc1ccc(S(=O)(=O)NCc2c(-c3ccccc3)c3cc(Cl)ccc3[nH]c2=O)cc1`, the Potency was inconclusive: 20 µM [activator, single point].
In the case of `CCOCCCNC(=O)c1ccc2c(c1)NC(=O)C(CS(=O)(=O)Cc1ccc(F)cc1Cl)N2` (centres undefined), the max response, negative = inhibition is reported as inactive: -2.81%.
With `C=C(C)CSc1nnc([C@@H](N)Cc2c[nH]c3ccccc23)o1` the max response, negative = inhibition was inactive: 2.31%.
In the case of `O=C(COc1ncnc2c(Cl)cc(Cl)cc12)NC1CCCCCC1`, the Potency is reported as inconclusive: 39.8 µM [inhibitor, single point].
With `Cc1ccc(C2=NN(CC(=O)NCCCN(CC(C)C)CC(C)C)C(=O)CC2)cc1` the max response, negative = inhibition was inactive: -18.4%.
With `COc1ccc(N(CC(=O)Nc2cccc(C)c2C)S(=O)(=O)c2c(C)n[nH]c2C)cc1` the Potency was inconclusive: 39.8 µM [activator, single point].
`Cc1cc(Br)c(NC(=O)COC(=O)CSc2nnc(-c3ccc(Cl)cc3)o2)c(Br)c1` was tested, and the Potency was inconclusive: 31.6 µM [inhibitor, single point].
`CN1/C(=C\C(=O)c2cccc(S(=O)(=O)N3CCCCC3)c2)C(C)(C)c2ccccc21` was tested, and the Potency was inconclusive: 25.1 µM [inhibitor, single point].
`CN(C)c1ccc(/C=C/c2nc3ccccc3s2)cc1` was tested, and the Potency was inconclusive: 31.6 µM [inhibitor, single point].
With `O=C(NC1=NCCS1)c1sc2cc(F)ccc2c1Cl` the Potency was inconclusive: 31.6 µM [inhibitor, single point].
With `COC(=O)[C@@H]1C[C@H]1[C@@H](NC(=O)c1cc(C)nn1C)c1ccccc1` the max response, negative = inhibition was inactive: -1.72%.
For `CCN(CC)C(=O)C1CCCN(c2ncnc3c2cnn3-c2cccc(C)c2)C1` (centres undefined), the Potency was inconclusive: 31.6 µM [activator, partial curve].
With `COc1ccc(Br)cc1CNC(=O)c1cnc2sc(N3CCCC3)nn2c1=O` the max response, negative = inhibition was inactive: -7.03%.
With `COc1cccc(C2NC(=O)c3n[nH]c(-c4cccs4)c32)c1` (centres undefined) the max response, negative = inhibition was inactive: -5.86%.
`CCn1c(C)nc2cc(C(=O)N=Nc3c(O)[nH]c4c(C)cc(C)cc34)ccc21` was tested, and the Potency was inconclusive: 12.6 µM [activator, partial curve].
